# Assay results reported in the supplement of paper PMC8728848.
# This is one part of the list.
# How the values were obtained:
# Experiment in all cases: glycan array binding signal (z-score within array); higher = stronger binding
# Details in all cases: glycan notation: IUPAC condensed, linker removed; mutation: R343I
# [1] = target: GalNAc(b1-3)GalNAc
# Outline: (§1)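 From the Consortium for Functional Glycomics database, 3228 arrays were curated, keeping only those whose protein sequence was available. Binding is given as a within-array Z-score averaged across arrays sharing a protein sequence and across linkers. Negative Z-scores can be read as non-binding.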
# [2] = target: GalNAc(b1-4)GlcNAc
# Outline: as §1
# [3] = target: Glc(a1-4)Glc
# Outline: as §1
# [4] = target: Glc(a1-6)Glc(a1-6)Glc
# Outline: as §1
# [5] = target: Glc(b1-4)Glc
# Outline: as §1
# [6] = target: Glc(b1-6)Glc
# Outline: as §1
# [7] = target: GlcA(b1-3)Gal
# Outline: as §1
# [8] = target: GlcA(b1-3)GlcNAc
# Outline: as §1
# [9] = target: GlcA(b1-6)Gal
# Outline: as §1
# [10] = target: GlcNAc(a1-3)Gal(b1-4)GlcNAc
# Outline: as §1
# [11] = target: GlcNAc(a1-6)Gal(b1-4)GlcNAc
# Outline: as §1
# [12] = target: GlcNAc(b1-2)Gal(b1-3)GalNAc
# Outline: as §1
# [13] = target: GlcNAc(b1-2)Man(a1-3)[GlcNAc(b1-2)Man(a1-6)]Man(b1-4)GlcNAc(b1-4)GlcNAc
# Outline: as §1
# [14] = target: GlcNAc(b1-3)Gal
# Outline: as §1
# [15] = target: GlcNAc(b1-3)Gal(b1-3)GalNAc
# Outline: as §1
# [16] = target: GlcNAc(b1-3)Gal(b1-4)Glc
# Outline: as §1
# [17] = target: GlcNAc(b1-3)Gal(b1-4)GlcNAc
# Outline: as §1
# [18] = target: GlcNAc(b1-3)Gal(b1-4)GlcNAc(b1-3)Gal(b1-4)GlcNAc
# Outline: as §1
# [19] = target: GlcNAc(b1-3)GalNAc
# Outline: as §1
# [20] = target: GlcNAc(b1-3)Man
# Outline: as §1
# [21] = target: GlcNAc(b1-3)[GlcNAc(b1-4)][GlcNAc(b1-6)]GlcNAc
# Outline: as §1
# [22] = target: GlcNAc(b1-3)[GlcNAc(b1-6)]Gal(b1-4)GlcNAc
# Outline: as §1
# [23] = target: GlcNAc(b1-3)[GlcNAc(b1-6)]GalNAc
# Outline: as §1
# [24] = target: GlcNAc(b1-4)Gal(b1-4)GlcNAc
# Outline: as §1
# [25] = target: GlcNAc(b1-4)GlcNAc
# Outline: as §1
# [26] = target: GlcNAc(b1-4)GlcNAc(b1-4)GlcNAc
# Outline: as §1
# [27] = target: GlcNAc(b1-4)GlcNAc(b1-4)GlcNAc(b1-4)GlcNAc(b1-4)GlcNAc
# Outline: as §1
# [28] = target: GlcNAc(b1-4)GlcNAc(b1-4)GlcNAc(b1-4)GlcNAc(b1-4)GlcNAc(b1-4)GlcNAc
# Outline: as §1
# [29] = target: GlcNAc(b1-4)[GlcNAc(b1-6)]GalNAc
# Outline: as §1
# [30] = target: GlcNAc(b1-6)Gal(b1-4)GlcNAc
# Outline: as §1
# [31] = target: GlcNAc(b1-6)GalNAc
# Outline: as §1
# [32] = target: GlcNAc3Prop(b1-4)GlcNAc
# Outline: as §1
# [33] = target: Kdn(a2-3)Gal(b1-3)GlcNAc
# Outline: as §1
# [34] = target: Kdn(a2-3)Gal(b1-4)GlcNAc
# Outline: as §1
# [35] = target: Man(a1-2)Man(a1-2)Man(a1-3)Man
# Outline: as §1
# [36] = target: Man(a1-2)Man(a1-2)Man(a1-6)[Man(a1-3)]Man
# Outline: as §1
# [37] = target: Man(a1-2)Man(a1-3)Man
# Outline: as §1
# [38] = target: Man(a1-2)Man(a1-3)[Man(a1-2)Man(a1-6)]Man
# Outline: as §1
# [39] = target: Man(a1-2)Man(a1-3)[Man(a1-2)Man(a1-6)]Man(a1-6)[Man(a1-2)Man(a1-2)Man(a1-3)]Man
# Outline: as §1
# [40] = target: Man(a1-2)Man(a1-3)[Man(a1-2)Man(a1-6)]Man(a1-6)[Man(a1-2)Man(a1-2)Man(a1-3)]Man(b1-4)GlcNAc(b1-4)GlcNAc
# Outline: as §1
# [41] = target: Man(a1-2)Man(a1-3)[Man(a1-6)]Man(a1-6)[Man(a1-2)Man(a1-3)]Man(b1-4)GlcNAc(b1-4)GlcNAc
# Outline: as §1
# [42] = target: Man(a1-2)Man(a1-6)[Man(a1-3)]Man(a1-6)[Man(a1-2)Man(a1-2)Man(a1-3)]Man
# Outline: as §1
# [43] = target: Man(a1-2)Man(a1-6)[Man(a1-3)]Man(a1-6)[Man(a1-2)Man(a1-2)Man(a1-3)]Man(b1-4)GlcNAc(b1-4)GlcNAc
# Outline: as §1
# [44] = target: Man(a1-3)[Man(a1-6)]Man
# Outline: as §1
# [45] = target: Man(a1-3)[Man(a1-6)]Man(a1-6)[Man(a1-2)Man(a1-3)]Man(b1-4)GlcNAc(b1-4)GlcNAc
# Outline: as §1
# [46] = target: Man(a1-3)[Man(a1-6)]Man(a1-6)[Man(a1-3)]Man
# Outline: as §1
# [47] = target: Man(a1-3)[Man(a1-6)]Man(a1-6)[Man(a1-3)]Man(b1-4)GlcNAc(b1-4)GlcNAc
# Outline: as §1
# [48] = target: Man(a1-3)[Man(a1-6)]Man(b1-4)GlcNAc(b1-4)GlcNAc
# Outline: as §1
# [49] = target: Man(a1-6)Man
# Outline: as §1
# [50] = target: Man(b1-4)GlcNAc
# Outline: as §1
# [51] = target: Neu5Ac(a2-3)Gal
# Outline: as §1
# [52] = target: Neu5Ac(a2-3)Gal(b1-3)GalNAc
# Outline: as §1
# [53] = target: Neu5Ac(a2-3)Gal(b1-3)GalNAc(b1-3)Gal(a1-4)Gal(b1-4)Glc
# Outline: as §1
# [54] = target: Neu5Ac(a2-3)Gal(b1-3)GalNAc(b1-3)Gal(b1-4)GlcNAc
# Outline: as §1
# [55] = target: Neu5Ac(a2-3)Gal(b1-3)GalNAc(b1-4)[Neu5Ac(a2-3)]Gal(b1-4)Glc
# Outline: as §1
# [56] = target: Neu5Ac(a2-3)Gal(b1-3)GalNAc6S
# Outline: as §1
# [57] = target: Neu5Ac(a2-3)Gal(b1-3)GlcNAc
# Outline: as §1
# [58] = target: Neu5Ac(a2-3)Gal(b1-3)GlcNAc(b1-3)Gal(b1-3)GlcNAc
# Outline: as §1
# [59] = target: Neu5Ac(a2-3)Gal(b1-3)GlcNAc6S
# Outline: as §1
binder,measurement,setting,value
Surfactant Protein D (Human); Neck + Carbohydrate Recognition Domain (NCRD) (Homo sapiens) (protein) MLLFLLSALVLLTQPLGYLEAEMKTYSHRTMPSACTLVMCSSVESGLPGRDRDGREGPRGEKGDPGLPGAAGQAGMPGQAGPVGPKGDNGSVGEPGPKGDTGPSGPPGPPGVPGPAGREGALGKQGNIGPQGKPGPKGEAGPKGEVGAPGMQGSAGARGLAGPKGERGVPGERGVPGNTGAAGSAGAMGPQGSPGARGPPGLKGDKGIPGDKGAKGESGLPDVASLRQQVEALQGQVQHLQAAFSQYKKVELFPNGQSVGEKIFKTAQFVKPFTEAQLLCTQAGGQLASPRSAAENAALQQLVVAKNEAAFLSMTDSKTEGKFTYPTGESLVYSNWAPGEPNDDGGSEDCVEIFTNGKWNDIACGEKRLVVCEF,glycan array binding signal (z-score),[1],-0.257
same,glycan array binding signal (z-score),[2],-0.27
same,glycan array binding signal (z-score),[3],-0.192
same,glycan array binding signal (z-score),[4],-0.229
same,glycan array binding signal (z-score),[5],-0.276
same,glycan array binding signal (z-score),[6],-0.25
same,glycan array binding signal (z-score),[7],-0.273
same,glycan array binding signal (z-score),[8],-0.275
same,glycan array binding signal (z-score),[9],-0.266
same,glycan array binding signal (z-score),[10],1.21
same,glycan array binding signal (z-score),[11],-0.261
same,glycan array binding signal (z-score),[12],-0.277
same,glycan array binding signal (z-score),[13],5.45
same,glycan array binding signal (z-score),[14],-0.281
same,glycan array binding signal (z-score),[15],-0.238
same,glycan array binding signal (z-score),[16],-0.116
same,glycan array binding signal (z-score),[17],0.166
same,glycan array binding signal (z-score),[18],-0.027
same,glycan array binding signal (z-score),[19],-0.253
same,glycan array binding signal (z-score),[20],-0.076
same,glycan array binding signal (z-score),[21],0.573
same,glycan array binding signal (z-score),[22],1.31
same,glycan array binding signal (z-score),[23],-0.167
same,glycan array binding signal (z-score),[24],-0.27
same,glycan array binding signal (z-score),[25],-0.23
same,glycan array binding signal (z-score),[26],0.081
same,glycan array binding signal (z-score),[27],-0.056
same,glycan array binding signal (z-score),[28],-0.204
same,glycan array binding signal (z-score),[29],-0.05
same,glycan array binding signal (z-score),[30],-0.275
same,glycan array binding signal (z-score),[31],-0.272
same,glycan array binding signal (z-score),[32],-0.278
same,glycan array binding signal (z-score),[33],-0.257
same,glycan array binding signal (z-score),[34],-0.275
same,glycan array binding signal (z-score),[35],4.64
same,glycan array binding signal (z-score),[36],3.86
same,glycan array binding signal (z-score),[37],4.19
same,glycan array binding signal (z-score),[38],1.37
same,glycan array binding signal (z-score),[39],4.37
same,glycan array binding signal (z-score),[40],2.4
same,glycan array binding signal (z-score),[41],4.08
same,glycan array binding signal (z-score),[42],4.33
same,glycan array binding signal (z-score),[43],4
same,glycan array binding signal (z-score),[44],0.263
same,glycan array binding signal (z-score),[45],4.22
same,glycan array binding signal (z-score),[46],4.22
same,glycan array binding signal (z-score),[47],2.45
same,glycan array binding signal (z-score),[48],1.35
same,glycan array binding signal (z-score),[49],-0.261
same,glycan array binding signal (z-score),[50],0.903
same,glycan array binding signal (z-score),[51],-0.275
same,glycan array binding signal (z-score),[52],-0.278
same,glycan array binding signal (z-score),[53],-0.272
same,glycan array binding signal (z-score),[54],-0.279
same,glycan array binding signal (z-score),[55],-0.277
same,glycan array binding signal (z-score),[56],-0.275
same,glycan array binding signal (z-score),[57],-0.273
same,glycan array binding signal (z-score),[58],-0.268
same,glycan array binding signal (z-score),[59],-0.275
